Results: PubChem BioAssay AID485281 (National Center for Advancing Translational Sciences (NCATS), 2010)
“And” between values parts separate entries of the source, which are not always exact repeats. Identical values can stand only once. About 260 (0.074%) of roughly 350,000 compounds were called active. Inconclusive results, whose numbers are uncertain, are shown with a selection of clear calls. Calls follow the shape of the dose curve; as a rule, active = well fitted inhibition curve with a large enough effect; inconclusive = small, poorly fitted or top-dose-only effect; inactive = no such curve, though single readings can be large or run the other way. Potencies of inconclusive entries are doubtful fits and often do not repeat.

Molecular target: Ferritin light chain (Equus caballus) (UniProt P02791)
Assay: qHTS Assay for Identification of Novel General Anesthetics; also: nearly all actives have a fitted effect of over 20% in size
Conditions: apoferritin/1-aminoanthracene competitive binding, fluorescence; activity change, negative = displacement: at 77.5 µM (top of the series)
How it was run: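 Horse-spleen apoferritin (10 uM) was mixed with 50% saturated 1-aminoanthracene in PBS, exposed to compounds for 10 min at room temperature, and read for fluorescence (ex 380 nm, em 535 nm). Competitive displacement was fitted with a four-parameter Hill equation.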
% is scaled to controls: 0 for no effect and ±100 for the full control effect; potency is read from the fitted curve at half-maximal effect; tags tell the direction and shape of the fitted curve.

Chain of UniProt P02791 (P02791 whole entry, looked up): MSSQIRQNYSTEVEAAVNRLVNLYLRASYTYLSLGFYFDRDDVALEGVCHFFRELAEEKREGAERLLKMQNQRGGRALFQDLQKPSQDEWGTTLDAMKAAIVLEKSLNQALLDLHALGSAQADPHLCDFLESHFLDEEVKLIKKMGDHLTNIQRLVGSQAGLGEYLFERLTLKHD

| Structure (SMILES) | Potency | activity change, negative = displacement |
| --- | --- | --- |
| CCS(=O)(=O)N1CCc2cc(C(=O)N3CCN(c4cccc(C(F)(F)F)c4)CC3)ccc21 | inconclusive: 28.2 µM [inhibitor, partial curve] | – |
| Oc1cccc(C(Nc2ccccn2)c2ccc3cccnc3c2O)c1Cl (stereo not given) | – | inactive: -8.08% |
| Brc1ccc(CN2C3=NCCCN3c3ccccc32)cc1 | – | inactive: -10.2% |
| CN1CCN(S(=O)(=O)c2ccc(NC(=O)C3CCCCC3)cc2)CC1 | inconclusive: 17.8 µM [inhibitor, partial curve] | – |
| Cc1cc(C)cc(OCC(=O)Nc2ccc(N3CCCC3)cc2)c1 | inconclusive: 35.5 µM [inhibitor, partial curve] | – |
| Cc1c(CCOC(=O)CC23CC4CC(CC(C)(C4)C2)C3)sc[n+]1CC(=O)c1ccccc1 | inconclusive: 28.2 µM [inhibitor, partial curve] | – |
| CC1(C)CC(=O)C/C(=N\NC(=O)C2CC2c2ccccc2)C1 (stereo not given) | – | inactive: -15.1% |
| CN=c1scc(-c2ccccc2Br)n1/N=C/c1ccc[nH]1 | inconclusive: 20 µM [inhibitor, partial curve] | – |
| COCC1CCN(C(=O)c2oc3c(F)cccc3c2C)C1 (stereo not given) | inconclusive: 35.5 µM [inhibitor, single point] | – |
| CCOCCCNC(=O)/C(C#N)=C/c1ccc(-c2ccc(S(=O)(=O)N3CCOCC3)cc2)o1 | inconclusive: 28.2 µM [inhibitor, single point] | – |
| CCOC(=O)Cc1ccc(NC(=O)n2ncc3c(C)cccc32)cc1 | inconclusive: 25.1 µM [inhibitor, single point] | – |
| COc1ccc(-c2nnc3n2N=C(c2ccc(OC)cc2OC)CS3)cc1 | inconclusive: 35.5 µM [inhibitor, partial curve] | – |
| Cc1ccc2c(c1)C(=O)C(=O)N2CCOc1ccccc1 | inconclusive: 35.5 µM [inhibitor, partial curve] | – |
| COC(=O)c1ccc(C2Nc3c(C)cc(C)cc3C3C=CCC32)cc1 (stereo not given) | inconclusive: 31.6 µM [inhibitor, partial curve] | – |
| O=C(NCc1cccnc1)c1ccc(COc2ccccc2Cl)cc1 | inconclusive: 25.1 µM [inhibitor, partial curve] | – |
| COc1ccc(C2C(C(=O)c3ccco3)=C(O)C(=O)N2CCc2ccccc2)cc1OC (stereo not given) | inconclusive: 5.62 µM [inhibitor, partial curve] | – |
| N/C(=N\OC(=O)CCc1ccccc1)c1cccc(Br)c1 | inconclusive: 14.1 µM [inhibitor, partial curve] | – |
| Cc1ccc(-c2nc(N)sc2CC(=O)OCC(=O)NC2CCCC(C)C2C)cc1 (stereo not given) | inconclusive: 28.2 µM [inhibitor, partial curve] | – |
| Cc1cc2ccccn2c1C(=O)c1cccc(F)c1 | inconclusive: 31.6 µM [inhibitor, single point] | – |
| Cn1c(=O)oc2cc(S(=O)(=O)N3CCCC(C(=O)N4CC=C(c5ccccc5)CC4)C3)ccc21 (stereo not given) | – | inactive: -11.9% |
| CCOc1ccc(-c2cc(C(=O)NCCCn3ccnc3)c3cc(Br)ccc3n2)cc1 | – | inactive: 2.67% |
| Cn1c(=O)c2c(nc(SCC(=O)Nc3ccc(OC(F)(F)F)cc3)n2Cc2cccc(C(F)(F)F)c2)n(C)c1=O | – | inactive: 47.1% |

| Structure (SMILES) | Potency | activity change, negative = displacement |
| --- | --- | --- |
| CCn1c(=O)cc(SCC(=O)Nc2cc(OC)c(OC)c(OC)c2)c2ccccc21 | inconclusive: 31.6 µM [inhibitor, partial curve] | – |
| COc1ccc(-c2noc(-c3ccc(NCc4ccc(C)cc4)c([N+](=O)[O-])c3)n2)cc1OC | – | inactive: 4.55% |
| COC(=O)c1c(C(=O)NCc2ccccc2)ncn1CC(O)COc1ccccc1 (stereo not given) | inconclusive: 28.2 µM [inhibitor, single point] | – |
| CCCn1c(-c2ccc(F)cc2)nc2c(NCCN(C(C)C)C(C)C)nc(C)nc21 | – | inactive: -9.63% |
| COc1cccc(C2N(c3ccccc3)CCN2c2ccccc2)c1OC | inconclusive: 31.6 µM [inhibitor, single point] | – |
| C/C(=N/OCC(=O)Nc1ccc(C)cc1C)c1cccs1 | inconclusive: 35.5 µM [inhibitor, single point] | – |
| Cn1nc(C(=O)NCc2ccccc2)c2c1-c1ccccc1SC2 | inconclusive: 0.891 µM [inhibitor, full curve, poor fit] | – |
| Cc1ccc(CSC2=Nc3ccccc3C3=NC(CCC(=O)N4CCN(c5ccccc5)CC4)C(=O)N23)cc1 (stereo not given) | inconclusive: 5.62 µM [inhibitor, full curve, poor fit] | – |
| Cc1cc(NC(=O)CSc2nnc(N)s2)c([N+](=O)[O-])cc1C | inconclusive: 31.6 µM [inhibitor, single point] | – |
| COc1ccc(-n2nc(C(=O)N3CCC(C)CC3)c3c4ccccc4n(C)c3c2=O)cc1Cl | – | inactive: -9.19% |
| Cc1noc(NS(=O)(=O)c2ccc(NC(=O)c3oc4ccc(Cl)cc4c3C)cc2)c1C | – | inactive: -18% |
| O=C(CS(=O)(=O)Cc1ccccc1)Nc1ccc(S(=O)(=O)N2CCCCCC2)cc1 | inconclusive: 11.2 µM [inhibitor, partial curve] | – |
| CCN(CC)S(=O)(=O)c1ccc(NC(=O)c2ccc(CN3CCOCC3)cc2)cc1 | inconclusive: 0.891 µM [inhibitor, full curve, poor fit] | – |
| O=C(Cn1ncc2c1-c1ccccc1OC2)N1CCc2ccccc21 | inconclusive: 56.2 µM [inhibitor, single point] | – |
| CCN(CC)c1ccc(C(=O)OCC(=O)Nc2ccc3[nH]c(=O)[nH]c3c2)cc1 | inconclusive: 35.5 µM [inhibitor, single point] | – |
| CN(Cc1ccccc1)C(=O)c1cc2ccccc2o1 | inconclusive: 35.5 µM [inhibitor, partial curve] | – |
| COc1ccccc1C(=O)NC1CCCCCCC1 | inconclusive: 22.4 µM [inhibitor, partial curve, poor fit] | – |
| CCOC(=O)C(CC)n1cnc2c(nnn2-c2ccc(OC)cc2)c1=O (stereo not given) | inconclusive: 31.6 µM [inhibitor, partial curve] | – |
| COc1ccc(C(=O)Cn2nnc(-c3ccccc3F)n2)cc1 | inconclusive: 35.5 µM [inhibitor, single point] | – |
| Cc1csc(NC(=O)CSc2nnc(-c3ccc(S(=O)(=O)N4CCCC4)cc3)o2)n1 | – | inactive: -19.6% |
| COc1ccccc1NC(=O)C1=C(C)Nc2c(C(=O)Nc3ccc(F)cc3)cnn2C1c1ccc(Cl)cc1 (stereo not given) | – | inactive: 54.7% |
| O=C(CSc1ccncc1)Nc1ccc2ccccc2c1 | inconclusive: 31.6 µM [inhibitor, partial curve] | – |

| Structure (SMILES) | Potency | activity change, negative = displacement |
| --- | --- | --- |
| COC(=O)Nc1ccc(=O)n(Cc2c(Cl)cccc2Cl)c1 | – | inactive: -7.61% |
| COc1ccccc1Oc1nc2c(c(=O)n(C)c(=O)n2C)n1Cc1cccc(Br)c1 | inconclusive: 3.55 µM [inhibitor, full curve] | – |
| Cc1ccc2cc(CN(CCN3CCCC3)C(=O)Nc3ccccc3)c(=O)[nH]c2c1C | inconclusive: 25.1 µM [inhibitor, partial curve] | – |
| COC(=O)Cc1ccc(NC(=S)NCCO)cc1 | – | inactive: 0.212% |
| CCc1ccc(N=c2c([N+](=O)[O-])nn(-c3ccc4c(c3)OCCO4)n2O)cc1 | inconclusive: 17.8 µM [inhibitor, partial curve] | – |
| Cc1nc2c(cnn2-c2ccccc2Cl)c(=O)n1-c1ccc(C(C)C)cc1 | inconclusive: 50.1 µM [inhibitor, partial curve] and inconclusive: 12.6 µM [inhibitor, partial curve] | – |
| CN(c1ccccc1)S(=O)(=O)c1cc(Cl)ccc1Cl | inconclusive: 25.1 µM [inhibitor, partial curve] | – |
| O=C(CSc1nnc(Cc2ccc(Cl)cc2)o1)Nc1ccccc1 | inconclusive: 14.1 µM [inhibitor, partial curve] | – |
| COc1cccc(C(=O)NCC(=O)N/N=C/c2c(C)[nH]c3ccccc23)c1 | inconclusive: 15.8 µM [inhibitor, partial curve] | – |
| Cc1cc(C)c(C(=O)CSc2nc(C)cc(C)c2C(N)=O)c(C)c1 | inconclusive: 56.2 µM [inhibitor, single point] | – |
| Cc1ccc(S(=O)(=O)Nc2ccc(NC(=O)Nc3ccc(F)cc3F)cc2)cc1 | inconclusive: 35.5 µM [inhibitor, single point] | – |
| COc1cccc(NC(=O)COC(=O)Cc2ccccc2[N+](=O)[O-])c1 | inconclusive: 28.2 µM [inhibitor, single point] | – |
| CC1=NN(c2ccc(Cl)cc2)C(=O)/C1=C\c1cccn1-c1ccc(S(N)(=O)=O)cc1 | inconclusive: 50.1 µM [inhibitor, partial curve] | – |
| C=CCOC(=O)C1=C(C)OC(N)=C(C#N)C1c1c(C)nn(-c2ccccc2)c1Cl (stereo not given) | inconclusive: 35.5 µM [inhibitor, partial curve] | – |
| O=C(O)C1CCCN1S(=O)(=O)c1ccc(Br)s1 (stereo not given) (tested in a mixture with another compound) | – | inactive: 2.18% |
| CCc1nnc(NC(=O)CCC(=O)N2CCN(Cc3ccccc3)CC2)s1 | – | inactive: -7.83% |
| c1cnc(NC2CCCCCC2)nc1 | inconclusive: 17.8 µM [inhibitor, partial curve] | – |
| CCCCC/C=C\C/C=C\C/C=C\C/C=C\CCCC(=O)C(F)(F)F | inconclusive: 15.8 µM [inhibitor, partial curve] | – |
| COc1ccc(N2CCN(C(=O)c3ccc(CNc4c(N5CCOCC5)c(=O)c4=O)cc3)CC2)cc1 | inconclusive: 31.6 µM [inhibitor, partial curve] | – |
| CCCCN(C)c1nnc(NC(=O)Nc2cccc(C(C)=O)c2)s1 | inconclusive: 28.2 µM [inhibitor, partial curve] | – |
| O=C(CC1CCCC1)Nc1cccc(Br)c1 | inconclusive: 12.6 µM [inhibitor, partial curve] | – |
